# Data as given in the supplement of paper PMC8728848.
# Some of the results follow.
# Key:
# Assay in all cases: glycan array binding signal (z-score within array); higher = stronger binding
# Conditions in all cases: glycan notation: IUPAC condensed, linker removed
# [1] = target: GlcNAc(b1-3)Gal(b1-4)GlcNAc(b1-3)Gal(b1-4)GlcNAc(b1-2)Man(a1-3)[GlcNAc(b1-3)Gal(b1-4)GlcNAc(b1-3)Gal(b1-4)GlcNAc(b1-2)Man(a1-6)]Man(b1-4)GlcNAc(b1-4)GlcNAc
# In short: (§1)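 Arrays were curated from the Consortium for Functional Glycomics database, 3228 in total, and kept only where the protein sequence was available. Binding is expressed as a within-array Z-score. This score was averaged across arrays of the same protein sequence at different concentrations or buffers and across linkers, and negative values can be read as non-binding.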
# [2] = target: GlcNAc(b1-3)Gal(b1-4)GlcNAc(b1-3)Gal(b1-4)GlcNAc(b1-2)Man(a1-3)[GlcNAc(b1-3)Gal(b1-4)GlcNAc(b1-3)Gal(b1-4)GlcNAc(b1-2)Man(a1-6)]Man(b1-4)GlcNAc(b1-4)[Fuc(a1-6)]GlcNAc
# In short: as §1
# [3] = target: GlcNAc(b1-3)Gal(b1-4)GlcNAc(b1-3)Gal(b1-4)GlcNAc(b1-2)[GlcNAc(b1-3)Gal(b1-4)GlcNAc(b1-3)Gal(b1-4)GlcNAc(b1-6)]Man(a1-6)[GlcNAc(b1-3)Gal(b1-4)GlcNAc(b1-3)Gal(b1-4)GlcNAc(b1-2)Man(a1-3)]Man(b1-4)GlcNAc(b1-4)[Fuc(a1-6)]GlcNAc
# In short: as §1
# [4] = target: GlcNAc(b1-3)Gal(b1-4)GlcNAc(b1-3)Gal(b1-4)GlcNAc(b1-3)Gal(b1-4)GlcNAc(b1-2)Man(a1-3)[GlcNAc(b1-3)Gal(b1-4)GlcNAc(b1-3)Gal(b1-4)GlcNAc(b1-3)Gal(b1-4)GlcNAc(b1-2)Man(a1-6)]Man(b1-4)GlcNAc(b1-4)GlcNAc
# In short: as §1
# [5] = target: GlcNAc(b1-3)Gal(b1-4)GlcNAc(b1-3)Gal(b1-4)GlcNAc(b1-3)Gal(b1-4)GlcNAc(b1-2)Man(a1-3)[GlcNAc(b1-3)Gal(b1-4)GlcNAc(b1-3)Gal(b1-4)GlcNAc(b1-3)Gal(b1-4)GlcNAc(b1-2)Man(a1-6)]Man(b1-4)GlcNAc(b1-4)[Fuc(a1-6)]GlcNAc
# In short: as §1
# [6] = target: GlcNAc(b1-3)Gal(b1-4)GlcNAc(b1-3)Gal(b1-4)GlcNAc(b1-3)Gal(b1-4)GlcNAc(b1-2)[GlcNAc(b1-3)Gal(b1-4)GlcNAc(b1-3)Gal(b1-4)GlcNAc(b1-3)Gal(b1-4)GlcNAc(b1-6)]Man(a1-6)[GlcNAc(b1-3)Gal(b1-4)GlcNAc(b1-3)Gal(b1-4)GlcNAc(b1-3)Gal(b1-4)GlcNAc(b1-2)Man(a1-3)]Man(b1-4)GlcNAc(b1-4)[Fuc(a1-6)]GlcNAc
# In short: as §1
# [7] = target: GlcNAc(b1-3)Gal(b1-4)GlcNAc(b1-3)Gal(b1-4)GlcNAc(b1-3)Gal(b1-4)GlcNAc(b1-3)Gal(b1-4)GlcNAc(b1-2)Man(a1-3)[GlcNAc(b1-3)Gal(b1-4)GlcNAc(b1-3)Gal(b1-4)GlcNAc(b1-3)Gal(b1-4)GlcNAc(b1-3)Gal(b1-4)GlcNAc(b1-2)Man(a1-6)]Man(b1-4)GlcNAc(b1-4)GlcNAc
# In short: as §1
# [8] = target: GlcNAc(b1-3)Gal(b1-4)GlcNAc(b1-3)Gal(b1-4)GlcNAc(b1-3)Gal(b1-4)GlcNAc(b1-3)Gal(b1-4)GlcNAc(b1-2)Man(a1-3)[GlcNAc(b1-3)Gal(b1-4)GlcNAc(b1-3)Gal(b1-4)GlcNAc(b1-3)Gal(b1-4)GlcNAc(b1-3)Gal(b1-4)GlcNAc(b1-2)Man(a1-6)]Man(b1-4)GlcNAc(b1-4)[Fuc(a1-6)]GlcNAc
# In short: as §1
# [9] = target: GlcNAc(b1-3)Gal(b1-4)GlcNAc(b1-3)Gal(b1-4)GlcNAc(b1-3)Gal(b1-4)GlcNAc(b1-3)Gal(b1-4)GlcNAc(b1-2)[GlcNAc(b1-3)Gal(b1-4)GlcNAc(b1-3)Gal(b1-4)GlcNAc(b1-3)Gal(b1-4)GlcNAc(b1-3)Gal(b1-4)GlcNAc(b1-6)]Man(a1-6)[GlcNAc(b1-3)Gal(b1-4)GlcNAc(b1-3)Gal(b1-4)GlcNAc(b1-3)Gal(b1-4)GlcNAc(b1-3)Gal(b1-4)GlcNAc(b1-2)Man(a1-3)]Man(b1-4)GlcNAc(b1-4)[Fuc(a1-6)]GlcNAc
# In short: as §1
# [10] = target: GlcNAc(b1-3)Gal(b1-4)GlcNAc(b1-3)Gal(b1-4)GlcNAc(b1-3)GalNAc
# In short: as §1
# [11] = target: GlcNAc(b1-3)Gal(b1-4)GlcNAc(b1-3)GalNAc
# In short: as §1
# [12] = target: GlcNAc(b1-3)Gal(b1-4)GlcNAc(b1-3)[GlcNAc(b1-3)Gal(b1-4)GlcNAc(b1-3)]GalNAc
# In short: as §1
# [13] = target: GlcNAc(b1-3)Gal(b1-4)GlcNAc(b1-6)[Gal(b1-3)]GalNAc
# In short: as §1
# [14] = target: GlcNAc(b1-3)Gal(b1-4)GlcNAc(b1-6)[GlcNAc(b1-3)Gal(b1-3)]GalNAc
# In short: as §1
# [15] = target: GlcNAc(b1-3)Gal(b1-4)GlcNAc(b1-6)[GlcNAc(b1-3)]Gal(b1-4)GlcNAc
# In short: as §1
# [16] = target: GlcNAc(b1-3)GalNAc
# In short: as §1
# [17] = target: GlcNAc(b1-3)Man
# In short: as §1
# [18] = target: GlcNAc(b1-3)[GlcNAc(b1-4)][GlcNAc(b1-6)]GlcNAc
# In short: as §1
# [19] = target: GlcNAc(b1-3)[GlcNAc(b1-6)]Gal(b1-4)GlcNAc
# In short: as §1
# [20] = target: GlcNAc(b1-3)[GlcNAc(b1-6)]GalNAc
# In short: as §1
# [21] = target: GlcNAc(b1-4)Gal(b1-4)GlcNAc
# In short: as §1
# [22] = target: GlcNAc(b1-4)GlcNAc
# In short: as §1
# [23] = target: GlcNAc(b1-4)GlcNAc(b1-4)GlcNAc
# In short: as §1
binder,measurement,setting,value
MpAFP NterminalRI GFP (Marinomonas primoryensis) (protein) MSDNQFPFATLGNAIGFITKLDGSVTVQSIDGQERVLKLGDPIFFGETVLTGGSGSVTIAFVDGTDVVIGGDSIVEMTDEIYNTGDNEDLVADSSSEIDALQNAILAGDDPTLIQDAPAAGNTLADQQRVDVSIERNDNSAQAGFGVDTQSSLPTYGYDTDNGNGGQATEREYSAPSLSRTLNQSPLLEHHHHHH,glycan array binding signal (z-score),[1],0.803
same,glycan array binding signal (z-score),[2],1.56
same,glycan array binding signal (z-score),[3],1.26
same,glycan array binding signal (z-score),[4],6.83
same,glycan array binding signal (z-score),[5],2.05
same,glycan array binding signal (z-score),[6],2.6
same,glycan array binding signal (z-score),[7],0.255
same,glycan array binding signal (z-score),[8],-0.015
same,glycan array binding signal (z-score),[9],0.32
same,glycan array binding signal (z-score),[10],-0.344
same,glycan array binding signal (z-score),[11],-0.426
same,glycan array binding signal (z-score),[12],-0.194
same,glycan array binding signal (z-score),[13],-0.33
same,glycan array binding signal (z-score),[14],-0.192
same,glycan array binding signal (z-score),[15],-0.39
same,glycan array binding signal (z-score),[16],-0.21
same,glycan array binding signal (z-score),[17],2.02
same,glycan array binding signal (z-score),[18],-0.51
same,glycan array binding signal (z-score),[19],-0.441
same,glycan array binding signal (z-score),[20],-0.324
same,glycan array binding signal (z-score),[21],1.43
same,glycan array binding signal (z-score),[22],4.84
same,glycan array binding signal (z-score),[23],-0.497
